Test results taken from the supplement of paper PMC11417369.
The other results are listed elsewhere or left out.

System: PfHDP1 homeodomain (GST-tagged)
Test: gcPBM binding intensity (ln(normalized median fluorescence intensity)); higher = stronger DNA binding
Summary of the method: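 Plasmodium falciparum DNA-binding domains carrying a GST tag were expressed in E. coli and applied for 1 h, at about 25 μg on average, to an Agilent 4 × 180k array. The array held primer-extended double-stranded 36-bp intergenic genomic probes together with negative controls, and binding took place in 1× PBS with 1% milk, 0.2 mg/ml BSA, 0.5% salmon testes DNA and 0.03% Triton X-100. An Alexa488 anti-GST antibody detected bound protein, and the array was scanned at 488 nm. Binding intensity is taken as the highest Masliner-normalised natural-log median intensity across replicate spots of either probe orientation.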

Sequence | gcPBM binding intensity (ln)
TATTTATTTATATACACACACTTGTATAAAAAATGT [CACACA_site7048] | 6.75
ATATATATATATGTATGTACACATATTTTTTAACTT [XGTACX_site431] | 8.99
AAATAAATAAATTAACGTACATAATAACATTAATAT [XGTACX_site8567] | 6.1
TTATATTATAGACACACACACAAAAAAAAAAAAAAA [CACACA_site3816] | 6.4
TATATATATATTATTAGTACTTATTTTTTTTCATAT [XGTACX_site1279] | 8.55
TGTAAAACCTCCTACACACACCAATTAACTATTCTA [CACACA_site7074] | 6.53
TATAACTTTTATAGGTGTACCCAATATTATATATAG [XGTACX_site7673] | 6.27
TATATATAATAAGAAGGTACACGTAAGTAATAATTT [XGTACX_site934] | 7.08
TTTATATGTTTTGTATTTTTAATAAATATTTTATTA [TGCATGCA_negctrl_site20] | 6.69
CCATCTTTTTTACGATGTACAAGTATAAGGTATACG [XGTACX_site2697] | 6.66
TTCTTTTTTTTTCTGGGTACATATATTCCAATCACT [XGTACX_site4770] | 7.3
TTATAAAAGACAAAAGTGCATATATACATATGTATA | 7.5
AATATAATTATATGTGGTACAGAAATAATATAAAAT [XGTACX_site2366] | 6.96
TATTATGTTATATATTGTACATGTTTATTGAAACAA [XGTACX_site5605] | 6.5
TTTATATGTGAAAAAAGTACAAGGAAAAAATTAAAC [XGTACX_site7269] | 7.07
TTTTTTTTAGTATGAACACACATATATATTATAAAA [CACACA_site2935] | 6.38
TATTAACAAAATATAGCACACATAAATATATATTTA [CACACA_site8005] | 6.84
AATATATCTTTTTACGGCAACCATATTTTTCCCATT [CACACA_negctrl_site963] | 6.74
TTTTTTTTTTTTTGATGTACATAAATTAAGAATTAT [XGTACX_site7789] | 6.39
TTGAATTAAAAACATACATGCATATATATATATATA [TGCATGCA_site319] | 9.29
AAAAAGTTACATGGTGGTACTCAAATAAAATATTCT [XGTACX_site5993] | 6.06
AATAAATTACTATGTACACACATAAGAGTATAAATA [CACACA_site6940] | 6.75

Sequence | gcPBM binding intensity (ln)
TTATAAAATGGGCAAACACACACAAAAAAAAGATAT [CACACA_site8476] | 7.42
ATTATCCATGCATTTACACACACACTAAAAAAAATT [CACACA_site7848] | 7.42
AATTAAATTTATATGAATGTCAATTATATTGTTATA [XGTACX_negctrl_site261] | 5.99
ATGTATATATATTTGTGTACATATTTAGGAAATAAA [XGTACX_site2904] | 6.43
ATAAAACAACACACTTGTACTAATTTTTTTTTTTTT [XGTACX_site8377] | 6.32
TGAATAAATAGACACACACACATATATAAATATGTA [CACACA_site6159] | 6.43
TAATTTATAAGGTATAACAACAATTGCATCTATCAC [XGTACX_negctrl_site314] | 7
GAAAGAATAAAATTTACACACATATATAAATACATA [CACACA_site5273] | 6.2
AAATATTTTAACGAGAGTACATAATAACAATTTATG [XGTACX_site3865] | 6.35
AAAAAAAAAAAATACACACACACATATATATATATA [CACACA_site731] | 9.39
TTTTTTTTTTTTTATTGTACTAAATTATAGAGGGGA [XGTACX_site2609] | 6.31
TATATATTTGTAACGGGTACGTAGGTGTATATTCCA [XGTACX_site6028] | 6.77
AGCCACGTGGTATATACACACATAATCAAATAAAAT [CACACA_site9364] | 6.66
GAAACGATTTAATACACACACGTATTATAGATATAT [CACACA_site6666] | 6.74
TTTTTTTTTTTTTTGACACACATAATAAAATACAAA [CACACA_site3080] | 6.56
AATAAGCATATACAAACATGCATACATATAAATAAA [TGCATGCA_site338] | 6.63
CTACATACAAGAATTAAACACACACTAATTATAAAT [CACACA_site8986] | 6.83
CCTCAATATTCACATACACACAATATCATCGAAGTA [CACACA_site1676] | 6.87
AATAAATATAGGTACACACACAAATATGTACATATC [CACACA_site6976] | 6.71
AAAGAAAGGAATACGACACACAAAAAAAAAATATAT [CACACA_site1934] | 6.72
TAGTTGCACATGTATACACACAAAAAATATTTTATG [CACACA_site475] | 10.4
AAGTGGTTATAATCAACACACGTGGAATGTACTTTA [CACACA_site3700] | 6.44
